US20110182903A1, “NOVEL SOLUBLE CD83 POLYPEPTIDES, FORMULATIONS AND METHODS OF USE” (priority 2008, published 2011)
Where “and” joins values, the source holds several entries; their conditions need not be identical. Equal values may be shown once. Entries after “also recorded” stand apart in the source; their conditions may differ. Read-outs that look alike come from different tables or passages of the source.

Columns and labels:
[1] = Isoelectric focusing (IEF) gels of forced-degradation samples; assay type: physicochemical
Experimental: (§1) At the conclusion of the stated exposure time, acidic and basic samples were neutralized. All samples were stored at −20° C. until analyzed using SE-HPLC and isoelectric focusing (IEF) gels.
Data generated using SE-HPLC and isoelectric focusing (not shown), indicate that degradation products of hCD83ext are more electronegative than the starting material. This may be attributed primarily to multiple deamidations or hydrolysis and will be evaluated in on-going preformulation studies. […] Regarding charge state, the pI to be 6.9. Another major band appears in the room temperature (RT) control, with a pI of ˜6.8.
From the aspect of molecular size, acidic conditions (pH˜2) favored monomer (˜0.4% aggregation, same as RT control). […] The degradation observed for this sample is most likely due to exposure to ambient conditions rather than light. […] Acidic conditions (pH˜2) appear to stabilize the protein for both the state of aggregation and the charge state of hCD83ext. The IEF profile looks intact, even when compared to the RT control.

[2] = pH degradation rate study, SE-HPLC; assay type: physicochemical
Experimental: To further investigate the role of pH and its influence on protein stability, wild-type hCD83ext (lot 021 in PBS at pH 7.6) was freshly thawed and analyzed (first row of Table 6) or stored at room temperature and 2-8° C., at pH's of 4, 5, 6, 7, 8 and 9. Samples were kept at −70° C. until analyzed, after 1,2, 4 and 10 days of storage. These samples were then analyzed by SEC HPLC (Table 6) or using by SDS-PAGE Bioanalyzer (under reduced and non-reduced conditions; FIGS. 31-35).

[3] = Forced-degradation study, SEC-HPLC; assay type: physicochemical
Experimental: A force-degradation study with lot 021 of wild type hCD83ext stock solution (frozen aliquots in PBS pH 7.6, ˜6 mg CD83/mL) was performed as follows. Several aliquots were thawed and combined. Solutions were prepared as described in the table below:
as §1

[4] = tested on: TNFα production by LPS/IFN-γ stimulated peripheral blood mononuclear cells (PBMCs)
[5] = Freshly prepared on day of analysis, 0.35 days, listed as wild-type hCD83ext
[6] = Acid 3 hrs (50 mM HCl, ambient), listed as wild type hCD83ext
[7] = Acid 24 hrs (50 mM HCl, ambient), listed as wild type hCD83ext
[8] = Base 3 hrs (50 mM NaOH, ambient), listed as wild type hCD83ext
[9] = Base 24 hrs (50 mM NaOH, ambient), listed as wild type hCD83ext
[10] = Dark control (wrapped in foil, light chamber 5 days), listed as wild type hCD83ext
[11] = Heat 3 hrs (70° C.), listed as wild type hCD83ext
[12] = Heat 24 hrs (70° C.), listed as wild type hCD83ext
[13] = Light 1 day (D65/ID65 light source), listed as wild type hCD83ext
[14] = Light 5 days (D65/ID65 light source), listed as wild type hCD83ext
[15] = Oxidation 0.12% peroxide, ambient 3 hours, listed as wild type hCD83ext
[16] = Oxidation 1.2% peroxide, ambient 3 hours, listed as wild type hCD83ext

B1: hCD83ext-wt: recombinant human sCD83 (CD83 extracellular domain) purified from E. coli, wild type form, SEQ ID NO:5 (protein)
chain: GSPGTPEVKVACSEDVDLPCTAPWDPQVPYTVSWVKLLEGGEERMETPQEDHLRGQHYHQKGQNGSFDAPNERPYSLKIRNTTSCNSGTYRCTLQDPDGQRNLSGKVILRVTGCPAQRKEETFKKYRAEI
modifications: Synthetic extracellular domain of human CD83 with the addition of Gly-Ser-Pro-Gly at the N-terminus and Ile at the C-terminus
For B1, the pI [1] was 6.9, the “degradation (IEF bands)” value ([1]; heat (70° C.) and basic condition (pH~12)) was “rapid degradation” and the “% AGGREGATE” value [2, 5] was 6.31% and 6.32% and 6.76%. For the same molecule, the “% FRAGMENTS” value [2, 5] was 34.09% and 33.85% and 33.38%, the “% MONOMER” value [2, 5] was 59.60% and 59.83% and 59.86% and the “% AGGREGATE” value ([2]; pH 4, 2-8 C., 1 day) was 4.32%. The “% FRAGMENTS” value ([2]; pH 4, 2-8 C., 1 day) was 43.05%, the “% MONOMER” value ([2]; pH 4, 2-8 C., 1 day) was 52.63% and the “% AGGREGATE” value ([2]; pH 4, 2-8 C., 10 days) was 4.20%. The “% FRAGMENTS” value ([2]; pH 4, 2-8 C., 10 days) was 44.34%, the “% MONOMER” value ([2]; pH 4, 2-8 C., 10 days) was 51.46% and the “% AGGREGATE” value ([2]; pH 4, RT, 1 day) was 0.00%. The “% FRAGMENTS” value ([2]; pH 4, RT, 1 day) was 47.01%, the “% MONOMER” value ([2]; pH 4, RT, 1 day) was 52.99% and the “% AGGREGATE” value ([2]; pH 4, RT, 10 days) was 2.45%. The “% FRAGMENTS” value ([2]; pH 4, RT, 10 days) was 51.56%, the “% MONOMER” value ([2]; pH 4, RT, 10 days) was 45.99% and the “% AGGREGATE” value ([2]; pH 5, 2-8 C., 1 day) was 4.92%. For the same molecule, the “% FRAGMENTS” value ([2]; pH 5, 2-8 C., 1 day) was 42.72%, the “% MONOMER” value ([2]; pH 5, 2-8 C., 1 day) was 52.36% and the “% AGGREGATE” value ([2]; pH 5, 2-8 C., 10 days) was 6.97%. For the same molecule, the “% MONOMER” value ([2]; pH 5, 2-8 C., 10 days) was 51.48%, the “% AGGREGATE” value [3, 6] was 4.06% and 4.85% and the “% FRAGMENTS” value [3, 6] was 30.45% and 30.94%. For the same molecule, the “% MONOMER” value [3, 6] was 65.48% and 64.21%, the “% AGGREGATE” value [3, 7] was 4.06% and 4.03% and the “% FRAGMENTS” value [3, 7] was 18.40% and 18.65%. The “% MONOMER” value [3, 7] was 77.55% and 77.33%, the “% AGGREGATE” value [3, 8] was 0.66% and 1.00% and the “% FRAGMENTS” value [3, 8] was 58.57% and 57.80%. The “% MONOMER” value [3, 8] was 40.77% and 41.20%, the “% AGGREGATE” value [3, 9] was 24.06% and 23.41% and the “% FRAGMENTS” value [3, 9] was 22.15%. For the same molecule, the “% MONOMER” value [3, 9] was 53.54% and 54.44%, the light stability ([3]; D65/ID65 light source 1 or 5 days) was “light-stable” and the “% AGGREGATE” value [3, 10] was 36.38% and 35.76%. The “% FRAGMENTS” value [3, 10] was 32.25% and 32.89%, the “% MONOMER” value [3, 10] was 31.38% and 31.35% and the “% FRAGMENTS” value [3, 11] was 32.43% and 32.44%. The “% MONOMER” value [3, 11] was 65.96% and 66.07%, the “% AGGREGATE” value ([3]; Heat 24 hrs (70° C.)) was 0.00% and the “% FRAGMENTS” value [3, 12] was 68.07% and 64.55%. For the same molecule, the “% MONOMER” value [3, 12] was 31.93% and 35.45%, the “% AGGREGATE” value [3, 13] was 15.70% and 15.96% and the “% FRAGMENTS” value [3, 13] was 38.33%. The “% MONOMER” value [3, 13] was 45.88% and 45.71%, the “% MONOMER” value ([3]; Light 5 days (D65/ID65 light source)) was 27.35% and the “% AGGREGATE” value [3, 14] was 35.58% and 35.45%. For the same molecule, the “% FRAGMENTS” value [3, 14] was 37.07% and 37.20%, the “% AGGREGATE” value [3, 15] was 11.48% and 12.53% and the “% FRAGMENTS” value [3, 15] was 37.26% and 36.96%. The “% MONOMER” value [3, 15] was 51.25% and 50.51%, the “% AGGREGATE” value [3, 16] was 9.62% and 9.51% and the “% FRAGMENTS” value [3, 16] was 52.99% and 53.03%. For the same molecule, the “% MONOMER” value [3, 16] was 37.38% and 37.46%, the aggregation ([3]; acidic conditions (pH~2)) was roughly 0.4% and the “ability to inhibit TNFα production (relative activity)” value ([4]; FIG. 26, 0.5, 5, 25 and 100 μg/ml, wild type at pH 4.5 or 5.5, m3 at pH 5.5, m5 at pH 7.6, listed as hCD83ext wild type) was “retains greater activity when formulated at pH 4.5 than when formulated at pH 5.5; also recorded: more active than formulations at pH 7.6”. The “ability to inhibit TNFα production (relative activity)” value ([4]; FIGS. 28, 29, wild type buffer exchanged to pH 4.5 or 5.5, m3 at pH 5.5, m5 at pH 7.6) was “can be enhanced by formulating the material in an acidic buffer (pH 4.5 or pH 5.5)”.
